Experiment [1] concerns the target 2dV-Camuiα (rat) (UniProt P11275). Kind of experiment: fluorescence correlation spectroscopy (FCS); 2-photon TCSPC FCS at 23 °C on HEK293FT cell lysates (M-PER, 5 mM EDTA) diluted 2 to 15-fold in PBS with protease inhibitor; diffusion coefficients from curve fitting, given for plasmid ratio = 1.
The target is the same in experiment [2]. Briefly: SEC; fluorescence-coupled SEC (FSEC): supernatant of sonicated transfected HEK293S GnTI- cells loaded directly onto Superose-6 in TBS (20 mM Tris-HCl pH 8.0, 200 mM NaCl), 0.4 ml/min; EGFP fluorescence 475/507 nm; approximate oligomeric state from retention time. For orientation: SEC sorts molecules by how far they enter the pores of the column.

The stoichiometry N is a count of units in the complex or per binding partner.

As to “2dV-Camuiα (a stretch of the chain, no sequence given) (enzyme; other documents disagree on this pair)”, the diffusion coefficient with 2dV-Camuiα (rat) [1] was determined as 11 μm^2/s. In addition, the stoichiometry N with 2dV-Camuiα (rat) [2] turned out to be 12.

The values are drawn from paper PMC11540904.
